# Laboratory results reported in PubChem BioAssay AID686978 (National Center for Advancing Translational Sciences (NCATS), 2013).
# The whole screen tested about 420,000 compounds, of which about 64,000 (15%) were called active. Inconclusive results, whose numbers are uncertain, are shown with a selection of clear calls. Calls follow the shape of the dose curve; as a rule, active = well fitted inhibition curve with a large enough effect; inconclusive = small, poorly fitted or top-dose-only effect; inactive = flat fitted curve, though single readings scatter. Potencies of inconclusive entries are left out as doubtful fits.
# Assay: qHTS for Inhibitors of human tyrosyl-DNA phosphodiesterase 1 (TDP1): qHTS in cells in absence of CPT; also: nearly all actives have a fitted effect of over 55% in size
# Details: DT40 Tdp1-/- hTDP1 cells, no CPT, ATP luminescence, 48 h; activity change, negative = growth inhibition: at 46.2 µM (top of the series) unless noted
# Method in brief: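 Readout: luminescence from CellTiter-Glo after 30 min in the dark at RT. Cells: DT40 Tdp1-/- with stable hTDP1, 400/well. Exposure: compounds alone, ≥48 hr, 37 °C.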
# % is scaled to controls: 0 for no effect and ±100 for the full control effect; potency is read from the fitted curve at half-maximal effect; tags tell the direction and shape of the fitted curve.
SMILES,Potency,"activity change, negative = growth inhibition"
O=C(Nc1cc(Cl)ccc1Cl)N1CCN(C(=O)Nc2cc(Cl)ccc2Cl)CC1,"inconclusive [inhibitor, partial curve]",–
Cn1ncc(Cl)c1C(=O)N/N=C/c1ccccn1,"inconclusive [inhibitor, single point]",–
Cc1[nH]c2ccccc2c1C(=O)C(=O)N1CC=C(c2ccccc2)CC1,active: 23.1 µM,–
O=C(c1ccco1)N1CCN(C(=O)c2cnn(-c3cccc(F)c3)c2C2CCNCC2)CC1,inactive,–
Cc1cccc(-c2nc(SCC(=O)N(C)c3ccccc3)c3c(=O)n(C)c(=O)n(C)c3n2)c1,"inconclusive [inhibitor, partial curve]",–
CCCN1C(=O)C2(c3ccccc31)c1c(oc3ccccc3c1=O)C(=O)N2CCCOC(C)C (stereo not given),"inconclusive [inhibitor, single point]",–
O=C(/C=C/c1ccc(O)cc1)c1ccccc1,"inconclusive [inhibitor, partial curve]",–
O=C(CCC(=O)c1ccc(F)cc1)Nc1cccc(Br)c1,inactive,–
COC(=O)CCC(=O)Nc1ccc(Cl)c(Cl)c1,inactive,–
OCC1OC(n2cnc3c(Cl)nc(Cl)nc32)C(O)C1O (stereo not given),"inconclusive [inhibitor, partial curve, poor fit]",–
COc1ccc(OC)c(NC(=O)c2c(C)oc3ncnc(N4CCOCC4)c23)c1,"inconclusive [inhibitor, single point]",–
COc1ccc(NS(=O)(=O)c2ccc(C)c(C(=O)NCC(c3ccco3)N3CCCCC3)c2)cc1 (stereo not given),"inconclusive [inhibitor, single point]",–
Cc1oc2ccc(O)cc2c1C(=O)c1ccc([N+](=O)[O-])cc1,active: 13 µM,–
O=C(Cn1c(=O)n2nc(-c3cccc(F)c3)nc2c2ccccc21)N1CCN(c2ccccc2F)CC1,–,inconclusive: -15.8% [inhibitor]
O=C(c1cccc(Cl)c1)N1CCC(c2nc3ccccc3o2)CC1,"inconclusive [inhibitor, single point]",–
O=C(CN1C(=O)c2ccccc2C1=O)N1CCN(C2c3ccccc3-c3ccccc32)CC1,inactive,–
CCS(=O)(=O)Nc1cc2c3c(c1)CCN3C(=O)CC2,inactive,–
COc1ccc(/C=C2/SC(=O)N(CCCCCC(=O)Nc3ccccc3C(=O)O)C2=S)cc1,inactive,–
COc1cc(Cl)ccc1OCc1cc(C(=O)N2CCCC(OC)C2)no1 (stereo not given),"inconclusive [inhibitor, single point]",–
CC(=O)NC1=NN(C(C)=O)C(C)(c2cccc([N+](=O)[O-])c2)S1 (stereo not given),–,inconclusive: -33% [inhibitor]
O=C(NCCc1ccccc1)c1ccc(Br)o1,inactive,–
CCOc1ccc(CN2CCN(Cc3c(C)nn(CC)c3C)CC2CCO)cc1 (stereo not given),inactive,–
C=CCn1c(COc2ccc(CC)cc2)nnc1SCC(=O)N(C)C1CCS(=O)(=O)C1 (stereo not given),inactive,–
COc1cc(CCN2C(=O)N[C@@H](CCc3ccccc3)C(C(C)=O)=C2C)cc(OC)c1OC,active: 23.1 µM,–

SMILES,Potency,"activity change, negative = growth inhibition"
CCc1noc(C)c1C(=O)N1CCCC(CCC(=O)NCc2ccc(F)c(F)c2)C1 (stereo not given),"inconclusive [inhibitor, single point]",–
CC(Oc1ccccc1)C(=O)NNC(=O)c1ccccn1 (stereo not given),active: 7.31 µM,–
N/C(COc1ncn(-c2ccccc2)n1)=N\S(=O)(=O)c1ccc(Cl)cc1Cl,inactive,–
CCOC(=O)c1cnc2c(Cl)cc(Cl)cc2c1NCCOCCO,–,inconclusive: -32.3% [inhibitor]
COC(=O)c1sccc1NC(=O)Nc1ccc(Cl)c(Cl)c1,"inconclusive [inhibitor, single point]",–
Cc1cnc(CNc2ncnc3ccc(-c4cccc(C#N)c4)cc23)cn1,"inconclusive [inhibitor, single point]",–
Cc1nn(-c2ccc(F)cc2)c(Cl)c1C(=O)N(C)CC(=O)Nc1cccc(F)c1,active: 14.6 µM,–
CC(Sc1nc2c([nH]c3ccccc32)c(=O)n1-c1ccccc1)c1ccccc1 (stereo not given),"inconclusive [inhibitor, single point]",–
CCCn1c(=O)c2c(nc3n2CC(C)CN3Cc2ccccc2)n(C)c1=O (stereo not given),"inconclusive [inhibitor, partial curve]",–
CCOC(=O)C1(Cc2cccc(OC)c2)CCCN(C(=O)CNC(C)=O)C1 (stereo not given),inactive,–
CCCCNC(=O)c1sc2ncnc(N3CCc4ccccc4C3)c2c1C,active: 8.2 µM,–
Cc1ccc(-c2nnc(Nc3ccccc3)o2)cc1,"inconclusive [inhibitor, partial curve]",–
Cc1ccc(C(=O)N[C@@H](Cc2ccccc2)C(=O)N2CCC3(CC2)NCCc2[nH]cnc23)cc1C,"inconclusive [inhibitor, partial curve, poor fit]",–
Cc1cc(C)cc(NC(=O)CC2Oc3ccc(C)cc3NC2=O)c1 (stereo not given),inactive,–
CCN(CC)c1ccc(NC(=S)NC(=O)C2CCC2)cc1,"inconclusive [inhibitor, single point]",–
Cc1ccc(NC(=O)c2ccc(-c3cc(Cl)ccc3Cl)o2)c(C)c1,"inconclusive [inhibitor, single point]",–
CCOC(=O)C1CCN(C(=O)c2ccc3c(c2)N=C(CC)c2cc(C)ccc2S3)CC1,"inconclusive [inhibitor, full curve, poor fit]",–
CCOc1ccc(Cl)cc1/C=C1/C(=O)ON=C1C,"inconclusive [inhibitor, partial curve]",–
CC(C)(C)NC(=O)C(c1ccncc1)N(C(=O)Cn1nnc(-c2ccc(F)cc2)n1)c1ccc(F)cc1 (stereo not given),inactive,–
Cn1c(=O)cc(OCCCC(=O)NCc2ccc3c(c2)OCO3)c2ccccc21,"inconclusive [inhibitor, single point]",–
O=C(CSc1nc2c(cnn2-c2ccc(F)cc2)c(=O)[nH]1)Nc1ccccc1C(F)(F)F,inactive,–
CCC(=O)CCC(=O)c1ccc2ccccc2c1,inactive,–
COc1ccc(OC)c(NC(=O)CN2CCC(NC(=O)c3ccccc3C)CC2)c1,inactive,–
Cc1cccc(S(=O)(=O)N2CN(CC3CCCO3)c3nc4ccccc4nc32)c1 (stereo not given),"inconclusive [inhibitor, partial curve]",–

SMILES,Potency,"activity change, negative = growth inhibition"
O=S(=O)(Nc1ccccc1-c1ccccc1)c1ccccc1,"inconclusive [inhibitor, single point]",–
CCC(=O)N1CCc2cc(S(=O)(=O)CCC(=O)NCc3ccc(OC)cc3)ccc21,"inconclusive [inhibitor, partial curve]",–
COc1ccc(OCc2cc(C(=O)N(C)Cc3cc(C4CC4)n[nH]3)no2)c(Cl)c1,"inconclusive [inhibitor, partial curve]",–
O=C(c1cccc(F)c1)N1CCC2(CC1)CCN(c1ccccn1)CC2,"inconclusive [inhibitor, single point]",–
O=C(NCCNC1CCC(c2ccccc2)CC1)c1ccc(F)cc1 (stereo not given),"inconclusive [inhibitor, single point]",–
Cc1c(CN2CCC(CO)(Cc3ccccc3)CC2)c2ccccc2n1C,"inconclusive [inhibitor, single point]",–
C[C@H](CO)N1C[C@H](C)[C@@H](CN(C)S(=O)(=O)c2ccc(F)cc2)Oc2c(NC(=O)Nc3ccccc3)cccc2C1=O,inactive,–
Cc1ccc(CCCNC(=O)C2CCC(=O)N(Cc3cccc(F)c3)C2)cc1 (stereo not given),"inconclusive [inhibitor, single point]",–
CC1C(c2ccccc2)=NNc2nc3c(c(=O)n(C)c(=O)n3C)n21 (stereo not given),active: 11.6 µM,–
CCN(CC)S(=O)(=O)c1ccc(Cl)c(C(=O)OCC(=O)c2c(N)n(C)c(=O)n(C)c2=O)c1,"inconclusive [inhibitor, single point]",–
COc1ccc(C(NC(=O)c2ccc(F)cc2)c2ccccc2)cc1 (stereo not given),"inconclusive [inhibitor, partial curve]",–
O=C(N/N=C/c1ccc(OC(=O)c2ccccc2)cc1)c1ccc(CN2CCOCC2)cc1,active: 11.6 µM,–
O=C(C1=NOC2(C1)C(=O)N(Cc1ccccc1)c1ccccc12)N1CCOCC1 (stereo not given),"inconclusive [inhibitor, single point]",–
CCc1ccc(NC(=O)CS(=O)CC(=O)Nc2ccc(N3CCOCC3)cc2)cc1 (stereo not given),"inconclusive [inhibitor, single point]",–
COc1cccc(Cn2c(=O)cnc3cnc(N4CCOCC4)nc32)c1,"inconclusive [inhibitor, partial curve]",–
CCOC(=O)c1sc(N/N=C/c2cc(Br)c(O)c(OC)c2)nc1C,"inconclusive [inhibitor, single point]",–
COc1ccc(CCNC(=O)c2ccc3nc4cc(Cl)ccc4c(=O)n3c2)cc1OC,"inconclusive [inhibitor, single point]",–
N#Cc1c(Nc2ccccc2)s[nH]c1=O,active: 8.2 µM,–
COc1ccc(NC2CCCN(C(=O)CSc3ccncc3)C2)cc1 (stereo not given),"inconclusive [inhibitor, single point]",–
C=CCN1C=C2C(=O)C(C)(OC(=O)c3cnc4ccccc4n3)C(=O)C=C2C=C1/C=C/COC (stereo not given),active: 16.4 µM,–
O=C(CC1C(=O)NCCN1C/C=C/c1ccccc1)NCCCC1CCCC1 (stereo not given),"inconclusive [inhibitor, partial curve]",–
CC(C)C[C@@H](CN=[N+]=[N-])N1CCN(C)CCC1=O,inactive,–
